# Source: the BET-seq Pho4 binding data (Le et al. 2018)
# The list shows a part of the results. These are noisy estimates, calculated here from bound and input reads.
# Molecular target: T1, Pho4 (S. cerevisiae) (UniProt P07270)
# T1 sequence: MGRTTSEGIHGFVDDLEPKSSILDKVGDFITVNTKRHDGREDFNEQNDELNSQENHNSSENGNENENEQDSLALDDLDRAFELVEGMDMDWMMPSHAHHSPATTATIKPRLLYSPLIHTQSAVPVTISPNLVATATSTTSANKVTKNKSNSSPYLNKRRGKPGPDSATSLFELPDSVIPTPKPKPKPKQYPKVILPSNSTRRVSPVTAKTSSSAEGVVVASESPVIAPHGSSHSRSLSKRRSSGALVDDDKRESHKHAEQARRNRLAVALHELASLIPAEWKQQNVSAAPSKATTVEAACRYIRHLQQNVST
# Experiment: relative binding free energy (BET-seq); higher = weaker binding
# Settings: reference: library average
row,Sequence,relative binding free energy
1,CGTGTCACGTGTATAG,-0.01 kcal/mol
2,GCGGTCACGTGTTTTA,0.15 kcal/mol
3,CGTGTCACGTGATGTC,0.28 kcal/mol
4,GTGTTCACGTGCGTTA,0.2 kcal/mol
5,TTTGGCACGTGGAAGT,-0.02 kcal/mol
6,GGGTTCACGTGGGTAG,0.24 kcal/mol
7,ATATACACGTGGTTGT,-0.12 kcal/mol
8,TGGGCCACGTGCGGTA,-0.12 kcal/mol
9,GAAAGCACGTGGTGTG,-0.14 kcal/mol
10,AGTGGCACGTGAATAT,0.24 kcal/mol
11,AAAGTCACGTGCGGGG,0.08 kcal/mol
12,AGCGTCACGTGTCGGT,0.18 kcal/mol
13,GTTGTCACGTGGACGT,0.07 kcal/mol
14,TTGCTCACGTGATAGT,0.47 kcal/mol
15,ATTAACACGTGTGACG,0.14 kcal/mol
16,TATTGCACGTGCTGGA,0 kcal/mol
17,TGAGTCACGTGTTCGG,0.15 kcal/mol
18,GAGGGCACGTGGGGCA,-0.36 kcal/mol
19,TGGATCACGTGTGTAG,0.26 kcal/mol
20,ATGTGCACGTGAGGTC,0.09 kcal/mol
21,ATTAACACGTGAGTTG,0.23 kcal/mol
22,TGTCTCACGTGATTGA,0.38 kcal/mol
23,CTTCGCACGTGGGGTT,-0.2 kcal/mol

row,Sequence,relative binding free energy
1,GTACTCACGTGTTTTT,0.19 kcal/mol
2,CGGGGCACGTGTGATC,-0.04 kcal/mol
3,TTTTTCACGTGTCACG,0.26 kcal/mol
4,TTGGTCACGTGGCAGT,0.14 kcal/mol
5,TTAATCACGTGTGTGC,0.2 kcal/mol
6,AGCGTCACGTGGTTGG,0.02 kcal/mol
7,TATCGCACGTGGGCGG,-0.19 kcal/mol
8,TGTGTCACGTGTGTTG,0.09 kcal/mol
9,AAGGTCACGTGTTGAA,0.19 kcal/mol
10,CTAGGCACGTGATATT,-0.04 kcal/mol
11,GGTAGCACGTGCAGTG,-0.17 kcal/mol
12,AGGGGCACGTGTATAT,-0.02 kcal/mol
13,AGGTTCACGTGGCTTG,0.32 kcal/mol
14,TGGCCCACGTGGTGGA,-0.09 kcal/mol
15,TTAATCACGTGAATAG,0.3 kcal/mol
16,ATTGGCACGTGGCCGT,-0.25 kcal/mol
17,GGGGTCACGTGCAGTG,0.18 kcal/mol
18,TGATACACGTGTCTTT,0.07 kcal/mol
19,AGAAGCACGTGGATGG,0.03 kcal/mol
20,TATCGCACGTGAGTAG,0.22 kcal/mol
21,GGCTTCACGTGGTTTC,0.24 kcal/mol
22,CAGTTCACGTGTGTCT,0.29 kcal/mol
23,TGTTGCACGTGAAGGA,0.21 kcal/mol

row,Sequence,relative binding free energy
1,TACAACACGTGGTGGG,-0.14 kcal/mol
2,CTTATCACGTGATAGG,0.22 kcal/mol
3,GTGCGCACGTGGCTGA,-0.12 kcal/mol
4,GCTGGCACGTGGAGTT,0.01 kcal/mol
5,TATGCCACGTGTATGT,-0.09 kcal/mol
6,AGTAGCACGTGGACGG,-0.05 kcal/mol
7,GGAGACACGTGTTTTT,-0.13 kcal/mol
8,AGCCGCACGTGTTTTG,0.11 kcal/mol
9,ATAAGCACGTGTATTA,-0.14 kcal/mol
10,TTTGGCACGTGGAGAC,-0.09 kcal/mol
11,ATTTCCACGTGGGCGG,0.03 kcal/mol
12,TGGGGCACGTGCATCT,-0.14 kcal/mol
13,GGGGCCACGTGGCTTT,-0.13 kcal/mol
14,AGATACACGTGTGAGT,0.07 kcal/mol
15,GATTACACGTGTGTTA,0.21 kcal/mol
16,GGATGCACGTGGGCGG,-0.24 kcal/mol
17,TGGATCACGTGTGTGG,0.21 kcal/mol
18,TGTCTCACGTGACGGG,0.11 kcal/mol
19,GTTAGCACGTGATAGA,0.07 kcal/mol
20,AGCTGCACGTGGCGTG,-0.16 kcal/mol
21,TGGAGCACGTGGTTCA,-0.08 kcal/mol
22,GGGTGCACGTGTCCGT,-0.09 kcal/mol
23,TTTCGCACGTGTGGTA,0.01 kcal/mol

row,Sequence,relative binding free energy
1,TTATACACGTGAGGGG,0.3 kcal/mol
2,TGCGTCACGTGGTTAA,0 kcal/mol
3,AGGCGCACGTGAGGGT,0.09 kcal/mol
4,GGGTGCACGTGACTGG,0.11 kcal/mol
5,ATTGTCACGTGGCATG,-0.06 kcal/mol
6,TATGTCACGTGGTCGG,-0.07 kcal/mol
7,GAGTACACGTGGGTAA,-0.05 kcal/mol
8,TTGTTCACGTGTCGAA,0.2 kcal/mol
9,TGGCACACGTGTTTTT,0.19 kcal/mol
10,TATTACACGTGGCGTT,0.03 kcal/mol
11,TTCAACACGTGTTGGT,0.11 kcal/mol
12,TCCGTCACGTGTCGTG,0.24 kcal/mol
13,CTTTGCACGTGAATTA,0.25 kcal/mol
14,AGCGGCACGTGAGTAG,0.06 kcal/mol
15,CGTTGCACGTGCAGTG,-0.05 kcal/mol
16,GGTAGCACGTGCGGAT,-0.18 kcal/mol
17,TGCGGCACGTGGGGCG,-0.23 kcal/mol
18,TTGTGCACGTGCTTGT,-0.12 kcal/mol
19,TGGGCCACGTGATAGA,0.08 kcal/mol
20,GTATTCACGTGGCTGT,0.36 kcal/mol
21,TGGGGCACGTGGGTGC,-0.22 kcal/mol
22,TTCGGCACGTGAGTGA,0.19 kcal/mol
23,TGTTACACGTGTTTGA,0.21 kcal/mol

row,Sequence,relative binding free energy
1,TAATTCACGTGGGTGG,0.24 kcal/mol
2,GTGCGCACGTGGTTCG,-0.18 kcal/mol
3,GATATCACGTGTGTGT,0.14 kcal/mol
4,TTCAGCACGTGTGTGT,-0.1 kcal/mol
5,GGGTTCACGTGTCGCG,0.48 kcal/mol
6,CTTAGCACGTGAGTTA,0.23 kcal/mol
7,CATTTCACGTGATCGT,0.24 kcal/mol
8,TGGATCACGTGTGGAT,0.18 kcal/mol
9,CTTAGCACGTGTAGTA,-0.1 kcal/mol
10,TTTCACACGTGGGTTG,-0.01 kcal/mol
11,TTTGTCACGTGGTTGA,0.04 kcal/mol
12,ATTTGCACGTGTTTGC,-0.02 kcal/mol
13,CATGGCACGTGATGAG,-0.03 kcal/mol
14,GGATACACGTGATGAT,0.24 kcal/mol
15,TTCGACACGTGATGGT,0.13 kcal/mol
16,CTATACACGTGTGATT,0.21 kcal/mol
17,TTATACACGTGGGAGT,0.05 kcal/mol
18,GATAGCACGTGTAGTG,0.13 kcal/mol
19,ATTTTCACGTGGGTGA,0.21 kcal/mol
20,GATTTCACGTGTGCTT,0.32 kcal/mol
21,GTCTGCACGTGGGGTG,-0.18 kcal/mol
22,GTGAGCACGTGGGGTT,-0.14 kcal/mol
23,GGCCACACGTGTTGGT,0.18 kcal/mol
